Source: PMC11601910
These are yes or no findings as the source states them, for the method shown. For part of these data: Binding seen in cells or lysates may run through a third protein. Some entries that bind do so weakly or less than the wild type. For part of these data: Sequences can lack the tags named with a protein.

Chains of the proteins cited; added tags and fusions are not shown. Lines headed by an entry give the natural chain unless they say otherwise; changes in a name come on top. Residues count along the entry.
UniProt Q7Z434: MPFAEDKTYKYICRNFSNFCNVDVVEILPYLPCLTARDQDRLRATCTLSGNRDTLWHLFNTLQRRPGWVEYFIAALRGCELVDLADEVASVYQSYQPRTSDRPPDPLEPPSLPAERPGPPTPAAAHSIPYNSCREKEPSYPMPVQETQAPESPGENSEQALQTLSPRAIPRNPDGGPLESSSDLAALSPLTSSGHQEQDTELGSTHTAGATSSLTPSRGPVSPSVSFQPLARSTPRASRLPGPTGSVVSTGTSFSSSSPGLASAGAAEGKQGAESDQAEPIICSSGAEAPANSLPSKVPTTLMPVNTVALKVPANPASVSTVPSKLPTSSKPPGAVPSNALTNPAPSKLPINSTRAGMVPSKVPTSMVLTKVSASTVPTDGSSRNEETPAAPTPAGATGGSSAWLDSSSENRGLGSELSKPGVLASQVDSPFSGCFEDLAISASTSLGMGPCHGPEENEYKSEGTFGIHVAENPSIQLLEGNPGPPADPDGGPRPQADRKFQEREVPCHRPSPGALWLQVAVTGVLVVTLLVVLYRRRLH
MAVS ΔTM (aa 1–513): residues 1-513 of Q7Z434
MAVS (N) (aa 1–102): residues 1-102 of Q7Z434
MAVS (C) (aa 103–540): residues 103-540 of Q7Z434

Experiments:
[1] = target: T1, ZDHHC12 of Figure 3F (parent of the ZDHHC12 truncations) (UniProt Q96GR4); assay: co-IP; HEK293T transfected with the tagged plasmids for 24 h; whole-cell lysates in low-salt lysis buffer (50 mM HEPES pH 8.0, 150 mM NaCl, 1 mM EDTA, 1.5 mM MgCl2, 10% glycerol, 1% Triton X-100); anti-FLAG beads or antibodies plus protein A/G beads, 4°C overnight; immunoblot
T1 sequence: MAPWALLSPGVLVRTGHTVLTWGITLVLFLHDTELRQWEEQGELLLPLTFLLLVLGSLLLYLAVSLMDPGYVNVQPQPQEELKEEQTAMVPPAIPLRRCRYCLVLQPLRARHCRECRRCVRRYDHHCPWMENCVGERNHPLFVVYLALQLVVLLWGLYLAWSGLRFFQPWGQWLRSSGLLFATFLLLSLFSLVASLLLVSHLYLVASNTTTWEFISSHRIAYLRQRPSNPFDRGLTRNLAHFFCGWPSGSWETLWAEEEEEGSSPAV

[2] = target: FLAG-MAVS (wild type, full-length mitochondrial antiviral-signaling protein) (human) (UniProt Q7Z434); assay: as above
[3] = target: MAVS (C) (aa 103–540) (human) (UniProt Q7Z434); assay: as above
[4] = target: MAVS (N) (aa 1–102) (human) (UniProt Q7Z434); assay: as above
[5] = target: MAVS ΔTM (aa 1–513) (human) (UniProt Q7Z434); assay: as above
[6] = target: T2, endogenous MAVS of mouse bone marrow–derived macrophages (mouse (endogenous in BMDMs)), Q8VCF0; assay: SDD-AGE; endogenous MAVS; WT or ZDHHC12-KO THP-1–derived macrophages and Zdhhc12+/+ or Zdhhc12-/- BMDMs infected with SeV for indicated time periods (aggregation markedly decreased without ZDHHC12); details: remark: other sources report otherwise
T2 chain: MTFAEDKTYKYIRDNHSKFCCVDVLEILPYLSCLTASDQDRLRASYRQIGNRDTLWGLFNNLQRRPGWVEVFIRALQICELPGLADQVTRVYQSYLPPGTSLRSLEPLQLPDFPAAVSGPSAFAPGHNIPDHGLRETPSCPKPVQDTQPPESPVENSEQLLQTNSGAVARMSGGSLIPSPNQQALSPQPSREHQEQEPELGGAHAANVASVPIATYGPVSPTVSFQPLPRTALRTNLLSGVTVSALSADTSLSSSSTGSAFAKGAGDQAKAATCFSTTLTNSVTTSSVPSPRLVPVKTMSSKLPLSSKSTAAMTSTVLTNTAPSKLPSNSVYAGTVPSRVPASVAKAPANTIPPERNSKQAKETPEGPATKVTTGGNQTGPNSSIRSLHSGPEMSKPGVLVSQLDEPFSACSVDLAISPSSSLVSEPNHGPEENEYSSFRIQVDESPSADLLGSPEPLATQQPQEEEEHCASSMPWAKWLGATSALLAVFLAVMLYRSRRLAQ

[7] = target: endogenous MAVS of THP-1–derived macrophages (human (endogenous in THP-1)) (UniProt Q7Z434); assay: co-IP; endogenous proteins; THP-1–derived macrophages without SeV or IC poly(I:C) stimulation
[8] = target: endogenous MAVS of THP-1–derived macrophages (human (endogenous in THP-1)) (UniProt Q7Z434); assay: co-IP; endogenous proteins; THP-1–derived macrophages treated with SeV (MOI = 1) or IC poly(I:C) (5 μg/mL) for indicated time periods; also after siCtrl or siTRIM31 for 48 h and SeV for 12 h (association reduced by TRIM31 knock-down)
[9] = target: CFP-MAVS WT / YFP-MAVS WT (human) (UniProt Q7Z434); assay: FRET or BRET; HEK293T transfected with CFP-MAVS (donor) and YFP-ZDHHC12 (acceptor) for 24 h, SeV (MOI = 1) for 12 h; fixed cells, sensitized emission, Leica TCS SP8

HA-MAVS (from UniProt Q7Z434 1-540) was tested, and the binding [1] was “binds”.

B1: HA-ZDHHC12 (enzyme, UniProt Q96GR4 1-267)
chain: MAPWALLSPGVLVRTGHTVLTWGITLVLFLHDTELRQWEEQGELLLPLTFLLLVLGSLLLYLAVSLMDPGYVNVQPQPQEELKEEQTAMVPPAIPLRRCRYCLVLQPLRARHCRECRRCVRRYDHHCPWMENCVGERNHPLFVVYLALQLVVLLWGLYLAWSGLRFFQPWGQWLRSSGLLFATFLLLSLFSLVASLLLVSHLYLVASNTTTWEFISSHRIAYLRQRPSNPFDRGLTRNLAHFFCGWPSGSWETLWAEEEEEGSSPAV
In the case of B1, the binding [2] is reported as “binds”, the binding [3] is reported as “no binding” and the binding [4] is reported as “no binding”. The binding [5] was “no binding”.

B2: endogenous MAVS of mouse bone marrow–derived macrophages, Q8VCF0 1-503 (protein)
chain: MTFAEDKTYKYIRDNHSKFCCVDVLEILPYLSCLTASDQDRLRASYRQIGNRDTLWGLFNNLQRRPGWVEVFIRALQICELPGLADQVTRVYQSYLPPGTSLRSLEPLQLPDFPAAVSGPSAFAPGHNIPDHGLRETPSCPKPVQDTQPPESPVENSEQLLQTNSGAVARMSGGSLIPSPNQQALSPQPSREHQEQEPELGGAHAANVASVPIATYGPVSPTVSFQPLPRTALRTNLLSGVTVSALSADTSLSSSSTGSAFAKGAGDQAKAATCFSTTLTNSVTTSSVPSPRLVPVKTMSSKLPLSSKSTAAMTSTVLTNTAPSKLPSNSVYAGTVPSRVPASVAKAPANTIPPERNSKQAKETPEGPATKVTTGGNQTGPNSSIRSLHSGPEMSKPGVLVSQLDEPFSACSVDLAISPSSSLVSEPNHGPEENEYSSFRIQVDESPSADLLGSPEPLATQQPQEEEEHCASSMPWAKWLGATSALLAVFLAVMLYRSRRLAQ
In the case of B2, the binding [6] is reported as “binds”.

B3: endogenous ZDHHC12 of THP-1–derived macrophages (enzyme, UniProt Q96GR4 1-267)
chain: MAPWALLSPGVLVRTGHTVLTWGITLVLFLHDTELRQWEEQGELLLPLTFLLLVLGSLLLYLAVSLMDPGYVNVQPQPQEELKEEQTAMVPPAIPLRRCRYCLVLQPLRARHCRECRRCVRRYDHHCPWMENCVGERNHPLFVVYLALQLVVLLWGLYLAWSGLRFFQPWGQWLRSSGLLFATFLLLSLFSLVASLLLVSHLYLVASNTTTWEFISSHRIAYLRQRPSNPFDRGLTRNLAHFFCGWPSGSWETLWAEEEEEGSSPAV
B3 was tested, and the binding [7] was “binds weakly” and the binding [8] was “binds”.

B4: YFP-ZDHHC12 (enzyme, UniProt Q96GR4 1-267)
chain: MAPWALLSPGVLVRTGHTVLTWGITLVLFLHDTELRQWEEQGELLLPLTFLLLVLGSLLLYLAVSLMDPGYVNVQPQPQEELKEEQTAMVPPAIPLRRCRYCLVLQPLRARHCRECRRCVRRYDHHCPWMENCVGERNHPLFVVYLALQLVVLLWGLYLAWSGLRFFQPWGQWLRSSGLLFATFLLLSLFSLVASLLLVSHLYLVASNTTTWEFISSHRIAYLRQRPSNPFDRGLTRNLAHFFCGWPSGSWETLWAEEEEEGSSPAV
B4 was tested, and the binding [9] was “binds”.
